Results as given in PubChem BioAssay (NCATS).
The shares of active, inactive and inconclusive entries below differ from those in the screen. No potency is given beside an inconclusive call; the fits are too rough. Active and inactive are the calls of the source. The call rests on the fitted dose curve; in most records, active means well fitted cell-killing curve with a large enough effect; inconclusive means small, poorly fitted or top-dose-only effect; inactive means no such curve, though single readings can be large or run the other way.
On the % scale 0 is the no-effect control and ±100 the full control effect; potency means the concentration at half of the fitted maximal effect; tags describe the fitted curve by direction and shape.

Experiment: qHTS of pediatric cancer cell lines to identify multiple opportunities for drug repurposing: Primary screen for A673 cells (AID 1347092); further: nearly all actives have a fitted effect of over 45% in size
Conditions: A673 Ewing sarcoma viability, CellTiter-Glo ATP luminescence, 48 h; activity change, negative = cytotoxic: at 46 µM (top of the series) unless noted
How it was run: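 Luminescence from CellTiter-Glo, taken after 15 min at room temperature, served as the proxy for metabolically active cells following 48 h treatment. Both potency and efficacy were taken from curves fitted to the titration data.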
In the case of CCOC(=O)C1(c2ccccc2)CCN(CCC(C#N)(c2ccccc2)c2ccccc2)CC1, the Potency is reported as inconclusive [cytotoxic, partial curve].
With CCCCCC[C@H]1C(=O)O[C@H](C)[C@H](NC(=O)c2cccc(NC=O)c2O)C(=O)O[C@@H](C)[C@@H]1OC(=O)CC(C)C the Potency was active: 0.296 µM.
In the case of N#C[C@H](O[C@@H]1O[C@H](CO[C@@H]2O[C@H](CO)[C@H](O)[C@H](O)[C@H]2O)[C@H](O)[C@H](O)[C@H]1O)c1ccccc1, the Potency is reported as active: 29.6 µM.
With C=CCC1=C(C)C(OC(=O)C2C(C=C(C)C)C2(C)C)CC1=O (stereo not drawn) the Potency was active: 48.6 µM.
In the case of O=S(=O)(F)Cc1ccccc1, the Potency is reported as inconclusive [cytotoxic, full curve].
With CCOC(=O)c1c(C(C#N)=CN)c2ccc(Cl)c(Cl)c2n1C the “activity change, negative = cytotoxic” value was inactive: -20.6%.
For C[C@@H]1[C@@H](C(=O)C[C@H]2O[C@@H]3O[C@]4(C)CC[C@@H]5[C@H](C)CC[C@@H]([C@H]2C)[C@@]35OO4)O[C@@H]2O[C@]3(C)CC[C@H]4[C@H](C)CC[C@@H]1[C@@]24OO3, the Potency was inconclusive [cytotoxic, partial curve].
In the case of CC[C@H]1C=CC=CC[C@@H](C)[C@H](O)[C@@](C)(O)C(=O)[C@@H](C)[C@H](O)[C@@H](C)C(=O)[C@@H](C)[C@H](O)[C@@H](C)C=CC(=O)O[C@@H]2[C@@H](C)[C@H](CC1)O[C@]1(CC[C@H](C)[C@H](C[C@@H](C)O)O1)[C@H]2C, the Potency is reported as inconclusive [cytotoxic, full curve, poor fit].
